# According to paper PMC4336329 (PLoS ONE, 2015):
# Among all 310,000 compounds or so, about 14,000 (4.5%) showed an effect of 50% or more. The effect is printed as a negative number. Some of the results follow.
# Target: human ether-à-go-go-related gene (hERG) potassium channel (human, UniProt Q12809)
# Assay: primary screen, population patch clamp on CHO cells stably expressing hERG
# 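Also: peak tail current of the secondary pulse compared with the same well before compound.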
# Chain of human ether-à-go-go-related gene (hERG) potassium channel (Q12809 whole entry, looked up): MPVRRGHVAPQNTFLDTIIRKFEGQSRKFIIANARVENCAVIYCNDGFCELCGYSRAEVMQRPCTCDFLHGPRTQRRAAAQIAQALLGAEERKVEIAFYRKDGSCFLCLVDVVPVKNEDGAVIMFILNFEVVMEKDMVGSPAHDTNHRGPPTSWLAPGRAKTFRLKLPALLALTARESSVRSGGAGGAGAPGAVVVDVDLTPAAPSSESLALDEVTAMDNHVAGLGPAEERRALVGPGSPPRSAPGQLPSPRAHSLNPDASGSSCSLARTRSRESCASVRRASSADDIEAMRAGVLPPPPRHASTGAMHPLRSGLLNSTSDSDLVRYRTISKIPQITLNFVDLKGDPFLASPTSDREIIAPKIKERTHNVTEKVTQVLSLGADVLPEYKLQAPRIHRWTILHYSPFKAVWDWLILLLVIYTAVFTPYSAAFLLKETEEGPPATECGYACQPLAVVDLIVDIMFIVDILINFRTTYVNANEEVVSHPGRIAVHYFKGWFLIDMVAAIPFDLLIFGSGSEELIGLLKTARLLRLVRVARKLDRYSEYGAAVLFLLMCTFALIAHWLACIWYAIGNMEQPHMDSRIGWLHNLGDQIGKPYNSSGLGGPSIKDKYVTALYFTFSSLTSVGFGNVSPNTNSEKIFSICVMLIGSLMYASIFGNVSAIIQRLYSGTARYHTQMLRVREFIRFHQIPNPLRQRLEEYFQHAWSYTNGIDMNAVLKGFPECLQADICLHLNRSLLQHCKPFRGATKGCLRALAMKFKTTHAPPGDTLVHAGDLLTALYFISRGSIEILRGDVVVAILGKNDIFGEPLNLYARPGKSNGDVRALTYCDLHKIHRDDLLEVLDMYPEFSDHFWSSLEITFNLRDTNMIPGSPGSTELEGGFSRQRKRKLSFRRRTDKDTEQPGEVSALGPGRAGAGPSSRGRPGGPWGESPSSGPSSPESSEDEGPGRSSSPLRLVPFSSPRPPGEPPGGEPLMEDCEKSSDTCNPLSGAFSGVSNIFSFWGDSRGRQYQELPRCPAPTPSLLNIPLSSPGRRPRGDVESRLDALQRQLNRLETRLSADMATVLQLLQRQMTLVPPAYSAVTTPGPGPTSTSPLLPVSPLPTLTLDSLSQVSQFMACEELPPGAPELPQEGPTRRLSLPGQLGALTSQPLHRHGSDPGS
row,Structure (SMILES),"hERG current change (%, negative = inhibition) at 10uM"
1,COC(=O)c1ccc(Oc2c(C)oc3c(CN4CCN(C)CC4)c(O)ccc3c2=O)cc1,11.9%
2,CN(C)c1nc(-c2ccccc2)ns1,11.7%
3,O=C(CSc1cccc2cccnc12)N1CCCC1,12%
4,Cc1ccc(C)c(-c2csc(Nc3ncccn3)n2)c1,34.4%
5,CCOC(=O)c1c(NC(=O)c2cc(-c3ccc(Cl)s3)nc3ccccc23)sc(C(N)=O)c1C,5.32%
6,Cc1csc2ncc(C(=O)Nc3ccc(C(F)(F)F)cc3)c(=O)n12,14.3%
7,CC/C(=N\O)c1c(O)c2c(n(-c3ccccc3)c1=O)CCCC2,5.22%
8,Cc1cc(OCC(=O)N2CCC(C(=O)O)CC2)c2c3c(c(=O)oc2c1)CCCC3,1.41%
9,COc1ccccc1C(=O)NCC(=O)OCc1ccc(Br)cc1,-41.7%
10,COC(=O)c1cc(CSc2nnc(NC3CCCCC3)s2)oc1C,-10.1%
11,COc1ccc(CC(=O)N2CCC(Nc3nc4ccccc4n3Cc3ccc(F)cc3)CC2)cc1,-71.7%
12,C/C(=N\NC(=O)c1cccnc1)c1cc(C)oc1C,3.69%
13,Cc1ccc(NC(=O)CN2C(=O)CN=C(c3ccccc3)c3cc(Cl)ccc32)cc1,-11.8%
14,CCOc1ccccc1Nc1nc2ccccc2n1C(C)C,15.4%
15,CN1CCN(C(=O)c2ccc(S(=O)(=O)Nc3ccccc3)cc2)CC1.Cl,-10.4%
16,CCC(C)N1CCN(S(=O)(=O)c2ccc(NC(C)=O)cc2)CC1 (stereo not drawn),12.7%
17,CC(=O)c1ccc(Oc2nc(-c3cccnc3)nc3ccccc23)cc1,37.7%
18,CC[C@H](C)NC(=O)c1ccc(Cn2c(=S)[nH]c3c([nH]c4ccc(OC)cc43)c2=O)cc1,-1.82%
19,COc1ccc(/C=C/C(=O)OCC(=O)Nc2c(C)cccc2C)cc1,12.5%
20,O=C(O)C1CC(=O)N(CCOc2ccccc2)C1 (stereo not drawn),11.1%
21,COc1ccc2cc(C3CC(c4cccs4)=NN3C(C)=O)c(Cl)nc2c1 (stereo not drawn),14.8%

row,Structure (SMILES),"hERG current change (%, negative = inhibition) at 10uM"
1,O=C(CCn1nc(-c2ccccc2)c2ccccc2c1=O)NCC1CCCO1 (stereo not drawn),-1.21%
2,O=C(CN1C(=O)c2ccccc2S1(=O)=O)N1CCN(c2cccc(Cl)c2)CC1,0.0187%
3,NC(Cc1cc(O)c(O)cc1O)C(=O)O (stereo not drawn),7.9%
4,CC(C)CCn1c(SCC(=O)c2ccccc2)nc2c1c(=O)[nH]c(=O)n2C,17.7%
5,CCOC(=O)N1CCN(S(=O)(=O)c2ccc(C(=O)Nc3sc4c(c3C(=O)OC)CCN(C)C4)cc2)CC1.Cl,-0.173%
6,CCOc1cc(S(=O)(=O)N2CCN=C2Cc2ccccc2)ccc1F,-26.4%
7,CCCn1c(SCC(N)=O)nnc1-c1ccco1,12.6%
8,CCOc1ccc(-c2c(C(=O)N/N=C/c3ccc(OC(C)C)cc3)nnn2-c2nonc2N)cc1,2.86%
9,CCOC(=O)C1CCCN(C(=O)c2cc(-c3ccncc3)nc3ccccc23)C1 (stereo not drawn),-32.4%
10,COc1ccccc1S(=O)(=O)NCc1ccc(C(=O)N(C)Cc2ccc(F)cc2)cc1,-12.5%
11,CCOc1ccc(C2SCC(=O)N2c2c(C)n(C)n(-c3ccccc3)c2=O)cc1 (stereo not drawn),-2.35%
12,CCOC(CNC(=O)Cn1nc(C)c2ccccc21)OCC,-26.3%
13,CC(C)c1ccc(CN2C(=O)c3ccccc3S2(=O)=O)cc1,16.8%
14,COc1ccc(OC)c(-c2cc(C(=O)N3CCN(c4ncccn4)CC3)c3ccccc3n2)c1,-38.4%
15,C/C=C(/C)C(=O)Nc1cccc(C2=NOC3(C2)C[C@@H](C(N)=O)N(C(=O)CC(c2ccccc2)c2ccccc2)C3)c1 (stereo partly drawn),-11.2%
16,CCN(Cc1ccccc1)c1ccc(N=Nc2nn(C)c(C)c2[N+](=O)[O-])cc1,-8.31%
17,Cc1ccccc1CN1CCN(C(=O)Cc2ccccc2)CC1.Cl,22.1%
18,Cl.Oc1ccc(CCNc2c3ccccc3nc3ccccc23)cc1O,-68.2%
19,O=C(c1cc([N+](=O)[O-])ccc1N1CCOCC1)N1CCN(S(=O)(=O)c2cc(Cl)ccc2Cl)CC1,-32.3%
20,CCOC(=O)COc1cccc2c(=O)n(CC(=O)N3CCc4ccccc43)ccc12,14.5%
21,Fc1ccccc1CSc1nc2ncccc2[nH]1,-8.71%

row,Structure (SMILES),"hERG current change (%, negative = inhibition) at 10uM"
1,NC(=O)NC(CC(=O)OCC(=O)NC(=O)NCc1ccco1)c1ccc(Cl)cc1 (stereo not drawn),-3.2%
2,O=S(=O)(c1ccc(-c2cc(C(F)(F)F)on2)s1)N1CCCC1,6.3%
3,Cc1cc(=O)oc2c(C)c(OCC(=O)N3CCN(c4ccc(F)cc4)CC3)ccc12,-65.9%
4,CCc1[nH]nc(C(=O)N2CCCC(CO)(Cc3ccc(F)cc3F)C2)c1C (stereo not drawn),2.92%
5,O=C(Cn1cnc([N+](=O)[O-])c1)NCCc1ccccc1,1.96%
6,CN(C)c1nc(N)nc(-c2nc3ccccc3s2)n1,-3.77%
7,O=C(CSc1ccsc1[N+](=O)[O-])N1CCN(c2ccccn2)CC1,-0.719%
8,COCCCNC(=S)N(Cc1ccccc1)Cc1ccccc1,-11.2%
9,COc1ccc(C2c3ccc4ccccc4c3Oc3ncn(CCN4CCOCC4)c(=N)c32)cc1OC (stereo not drawn),-53.4%
10,O=C(/C(=C(\O)c1ccccc1)c1nc2ccccc2[nH]1)c1ccccc1,2.74%
11,COc1ccccc1OCc1nnc(SCC(=O)NCc2ccco2)n1Cc1ccco1,-34.1%
12,COc1ccc(OC)c(C(=O)COC(=O)c2c(OC)cccc2OC)c1,8.03%
13,COc1ccc(-n2ncc3c2CC(C)(C)CC3NC(=O)c2ocnc2C)cc1 (stereo not drawn),-53.5%
14,CCCCN(CCCC)CCNC(=O)c1cn(CC)c2ccc(S(=O)(=O)N(C)C3CCCCC3)cc2c1=O,-82.5%
15,O=C(Nc1cc(S(=O)(=O)N2CCCCC2)ccc1O)c1ccccc1NS(=O)(=O)c1ccc(F)c(F)c1,1.39%
16,O=C(c1ccco1)N1CCN(C(=O)C2CCCN(S(=O)(=O)c3cccc4nsnc34)C2)CC1 (stereo not drawn),-7.17%
17,N#Cc1c(-c2ccccc2)[nH]c(=O)[nH]c1=O,12.6%
18,O=C(Nc1cccc(NC(=O)c2cccs2)c1)c1ccc2c(c1)OCO2,-8.01%
19,Cc1cc2n(n1)SC(Nc1cccc3ccccc13)N2 (stereo not drawn),-11.9%
20,CCCC(C(=O)NCCC(C)C)N(Cc1ccccc1)C(=O)c1snc(C(N)=O)c1N (stereo not drawn),-5.39%
21,O=Cc1cn[nH]c1-c1ccccc1,19.1%

row,Structure (SMILES),"hERG current change (%, negative = inhibition) at 10uM"
1,CCN(CC)CC(=O)Nc1nc(-c2ccc(Cl)cc2)cs1,-35.8%
2,O=C(CCn1cccc1)Nc1ccc(F)cc1,-5.36%
3,Cc1cc(S(=O)(=O)N2CCOCC2)ccc1OCC(=O)Nc1ccc(F)c(Cl)c1,14.7%
4,COC(=O)CN(C)C(=O)c1ccc2nc(Cc3cccc(Cl)c3)oc2c1,10.3%
5,O=C(COc1ccc(Br)cc1CNCCCN1CCOCC1)Nc1ccccc1,-47.8%
6,CCCCNC(=S)N(Cc1ccco1)Cc1cc2cc3c(cc2[nH]c1=O)OCCO3,-3.06%
7,O=C1/C(=C\c2cccc(O)c2O)SC(=S)N1Cc1ccccc1,17.2%
8,NC(=O)C1(N2CCCCC2)CCN(CC(=O)Nc2cc(Cl)ccc2Cl)CC1,-72%
9,CCOC(=O)CN(C(=O)CN1CCC(n2nnc3cc(C)ccc32)CC1)c1ccccc1,-53.8%
10,CC(C)NC(=O)C(=O)NCCC1CCCCN1S(=O)(=O)c1cccs1 (stereo not drawn),2.16%
11,CCC(C)Nc1nc(Cl)nc(N(C#N)CN2C(=O)c3ccccc3S2(=O)=O)n1 (stereo not drawn),7.9%
12,CCCOc1c(Cl)cc(C(=O)NC)cc1OC,0.0514%
13,Cc1ccc(S(=O)(=O)N2CCC(C(=O)Nc3ccc4c(c3)OCO4)CC2)cc1,2.72%
14,Cc1sc2nc(COC(=O)Cc3ccccc3)[nH]c(=O)c2c1C,10.5%
15,Cc1cccc(-c2nc3sc(C)cc3c(=O)o2)c1,28.8%
16,COc1ccc(N(CC(=O)NCc2ccc(F)cc2)C(=O)CCC(=O)Nc2ccccn2)cc1,-4.31%
17,CC(NC(=O)C1CCN(S(=O)(=O)c2ccc3nc4c(c(C(=O)O)c3c2)CCCC4)CC1)c1ccccc1 (stereo not drawn),4.75%
18,Cc1cccc(Cc2nnc(CCC(=O)N(CC3CC3)CC3CCCO3)o2)c1 (stereo not drawn),-4.05%
19,O=C(CSc1nc(-c2cccs2)cc(C(F)(F)F)n1)Nc1cc(OCC(F)(F)F)cc([N+](=O)[O-])c1,9.54%
20,COc1ccc(CCC(C)NCc2ccc(C(F)(F)F)cc2)cc1 (stereo not drawn),-66.3%
21,Cc1cccc(COc2ccc(/C=N/NC(=O)c3nnn(-c4nonc4N)c3COc3ccc(F)cc3)cc2)c1,11%
